± gives the standard deviation. In all, about 5,500 sequences were measured (“pre-steady-state target cleavage rate”: median about 0.1, highest 2% from about 0.64 on). The entries are a selection whose mix differs from that of the whole data set.
What follows are sequences tested on MIWI (PIWIL1) piRISC loaded with piRNA #2 (30 nt) (assay: pre-steady-state target cleavage rate (min^-1); MIWI and MILI are mouse PIWI proteins and EfPiwi is from a freshwater sponge; tags in brackets are library labels; higher = faster piRNA-guided slicing of the target). Details: guide: piRNA #2 5'p-UUAGGUAACCCAGUAGAUCCAGAGGAAUUC; auxiliary factor: 500 nM mouse GTSF1.
How it was run: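 The pre-steady-state cleavage rate came from a burst-and-steady-state fit to pooled data from three Cleave-'n-Seq trials, in which uncleaved targets were sequenced and normalised to depth and to weakly complementary targets. Each reaction held 0.1 nM transcribed, DNA-blocked target RNA library and 1 nM active affinity-purified piRISC carrying one synthetic guide, with or without 500 nM GTSF1 partner protein, in HEPES–potassium acetate buffer at 33 °C for 0–8 or 0–960 min. k3 was capped at 0.0001 min^-1.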

| Sequence | pre-steady-state target cleavage rate |
| --- | --- |
| CUUUUCGUCUGGAUCUACUGGCUUACCUAA | 0.0735 ± 0.025 |
| CUUAUCCUCUGGAUCUACUGGGUUACCUCA | 0.292 ± 0.056 |
| CUUAACCUCGGGAUCUACUGGGUUACCUAA | 0.18 ± 0.051 |
| GAAUUCCUCUGGAUCUACUCGGUUACCUUA | 0.121 ± 0.034 |
| CAAUUCGUCUGGAUCUACUGGCUUACCUAA | 0.0887 ± 0.03 |
| CUAUUCCUCUGGAUCUACUGCCUUACCUAA | 0.0682 ± 0.014 |
| CUUAAGGUUGGAUCUACUGGGUUACCUAA | 0.111 ± 0.024 |
| CUUAACCUCUGGAUCUACUGGGAUACGUAA | 0.169 ± 0.025 |
| CUUAACCUCUGGAUCUACUGGGUUAACUAA | 0.326 ± 0.047 |
| GUAUUCCUCUGGAUCUACUCGGUUACCUAA | 0.0206 ± 0.01 |
| CUUAAGGUCUGGUUCUACUGGGUAACCUAA | 0.0364 ± 0.022 |
| CUUAUCCUCUGGAUCAAGUGGGUUACCUAA | 0.00866 ± 0.0026 |
| CAAUUCUUCUGGAUCUACUGGGUUACCUAA | 0.514 ± 0.047 |
| GAAUCCCUCUGGAUCUACUGGGUUACCUAA | 0.26 ± 0.043 |
| CUUAAGGUCUGGAUCUACUGGGUAAGCUAA | 0.00737 ± 0.0024 |
| CAAUUCCUCUGGAACUACUGGGUUACCUAA | 0.502 ± 0.042 |
| CUUAAGGUCAGGAUCUUCUGGGUUACCUAA | 0.00769 ± 0.0062 |
| CUUUUCCUCUGGAUCUAGUGCGUUACCUAA | 0.0621 ± 0.0074 |
| CUAUUCGAGUGGAUCUACUGGGUUACCUAA | 0.336 ± 0.035 |
| CUAUUCCUCAGGAUCUACUGGGUUACCAAA | 0.409 ± 0.077 |
| CUUAAGGAGAGAGAUCUACUGGGUUACCUAA | 0.00483 ± 0.0032 |
| CUUAUCCUCUGGAUCUACUGGGUUACCUAC [g2:g26:cont:t1C] | 0.326 ± 0.045 |
| CUUAAGGACUGGAUUUACUGGGUUACCUAA | 0.109 ± 0.049 |

| Sequence | pre-steady-state target cleavage rate |
| --- | --- |
| CAAUUCCUCUGGAUCUACUGGUUACCUAA | 0.19 ± 0.046 |
| CUUAUCGUCUGGAUCUACUGGGUUUCCUAA | 0.309 ± 0.054 |
| CUUAUCCUCUGGAUUCUACUGGGUUACCUAA | 0.247 ± 0.039 |
| CUUAAGGUCUGGAUUACUGGGUUACCUAA | 0.0531 ± 0.023 |
| CUUAAGCUCUGGUUCUAGUGGGUUACCUAA | 0.117 ± 0.013 |
| CUUAAGCUGUGGAUGUACUGGGUUACCUAA | 0.135 ± 0.05 |
| CUUAAGCUCUGGACCUACUGGGUUACCUAA | 0.0252 ± 0.012 |
| CUUAAGGAGACCUAGAUGUGCGUUACCUAA | 0.00369 ± 0.0017 |
| CUUAACCUCUGCAUCUACUGGGUAACCUAA | 0.116 ± 0.014 |
| GAAUUCGCUCUGGAUCUACUGGGUUACCUAA | 0.134 ± 0.031 |
| CUUAUCCUCUGGAUCUACUGGGAAACCUAA | 0.169 ± 0.033 |
| GAAUACCUCUGCAUCUACUGGGUUACCUAA | 0.345 ± 0.051 |
| CUUAUCCUCUGGAGUCUACUGGGUUACCUAA | 0.296 ± 0.034 |
| CUUAACCUCUGGAACUACUGGGUUUCCUAA | 0.0963 ± 0.029 |
| CUUAACCUCUGGAUCUACUGGGUAACCAAA | 0.0535 ± 0.013 |
| CUUAAGCUCUGCAUCUACUGGGUAACCUAA | 0.0717 ± 0.019 |
| CAAUUCCUCUGGAUCUACUGGGUUAACCUAA | 0.592 ± 0.072 |
| GAAUUCCUCUGGAUCUACAGGGUAACCUAA | 0.101 ± 0.018 |
| CUAUUCCUCUGGAUCUACUCGGAUACCUAA | 0.0176 ± 0.01 |
| CUUAAGCUCUGGAUCUACUGGGAUACCAAA | 0.0761 ± 0.025 |
| GAAUUCCUCUGGAUCUAGUGCGUUACCUAA | 0.0718 ± 0.0089 |
| CUUAUCGACUGGAUCUACUGGGUUACCUAA | 0.338 ± 0.057 |
| CUUAAGCUCUGGAACUACUGGGAUACCUAA | 0.0713 ± 0.0087 |

| Sequence | pre-steady-state target cleavage rate |
| --- | --- |
| CUUAAGGUCUGGAUGUACUGGGUUACCUUA | 0.0769 ± 0.019 |
| CUUAAGGUCUGGCAUCUACUGGGUUACCUAA | 0.145 ± 0.018 |
| CUUAACCUCUCCUUCUACUGGGUUACCUAA | 0.386 ± 0.039 |
| GAAUACCUCUGGAUGUACUGGGUUACCUAA | 0.251 ± 0.044 |
| GAAUUCCUCUGGAUCUAUCUGGGUUACCUAA | 0.00429 ± 0.0039 |
| GAAUUCCUCUGGAUCUACUCGGUUAGCUAA | 0.0782 ± 0.019 |
| CUUAAGCUCUGGAUCUACUGGGAUACCUAA | 0.104 ± 0.019 |
| CUUAAGCUCCGGAUCUACUGGGUUACCUAA | 0.165 ± 0.021 |
| CUUAAGCUCUGGAUCUACUGGGUUACCUA | 0.103 ± 0.02 |
| CUUAAGCUCUGGAUCUACUGGGUUCACCUAA | 0.0791 ± 0.013 |
| GAAUUCCUCUGGAUCUCUGGGUUACCUAA | 0.00502 ± 0.004 |
| CUUAAGGUCUGGAUCUACUGGGUGUACCUAA | 0.171 ± 0.035 |
| CUUAACCUCUGGAUCUACUGGGUUUGGUAA | 0.048 ± 0.012 |
| CUUAAGCUGUGGAUCUACUCGGUUACCUAA | 0.0342 ± 0.016 |
| CUUAACCUCUGGAUCAACAGGGUUACCUAA | 0.187 ± 0.024 |
| CUUAACCUCUGGAUCUACUGGGCUUACCUAA | 0.0324 ± 0.0087 |
| GAAUUCCUCUGGAUCACUGGGUUACCUAA | 0.0451 ± 0.015 |
| GAAUUCCUGCUGGAUCUACUGGGUUACCUAA | 0.323 ± 0.038 |
| CUAUACCUCUGGAUCUACUGGGUUACCUUA | 0.521 ± 0.1 |
| CUUAAGGACUGGAUCUACUGGGAUACCUAA | 0.0631 ± 0.039 |
| GAAUUCCUCUGGAUCUACUGCGUUUCCUAA | 0.133 ± 0.041 |
| CUUAUGCUCUGGAUCUACUGGGUUACCUUA | 0.0971 ± 0.014 |
| CAAUUCCUCUGGAUCUACUGGGUUGCCUAA | 0.442 ± 0.053 |

| Sequence | pre-steady-state target cleavage rate |
| --- | --- |
| CAAUUCCUCUGGAUCUACUGGGUUACUUAA | 0.563 ± 0.059 |
| CUUAUCGUCUGGUUCUACUGGGUUACCUAA | 0.4 ± 0.055 |
| CUUAACCUCUGGAUCUAGUGGCUUACCUAA | 0.00889 ± 0.0039 |
| CUUAAGGACUGGAUCUACUGAGUUACCUAA | 0.2 ± 0.072 |
| CUUAAGCUCUGGAUCUACUGGGUUACGCUAA | 0.272 ± 0.028 |
| GAAAUCCUCUGGAUCUACAGGGUUACCUAA | 0.113 ± 0.019 |
| CUUAAGCUCUGGAUCUACUGGGUUAGCCUAA | 0.0984 ± 0.011 |
| CUUAAGGACUCGAUCUACUGGGUUAGCUAA | 0.00705 ± 0.0047 |
| CUUUUCUCUCUGGAUCUACUGGGUUACCUAA | 0.205 ± 0.033 |
| CUUAACCUCUGGAUCGACUGGGUUACCUAA | 0.142 ± 0.014 |
| CUUAAGCUCUGGUAUCUACUGGGUUACCUAA | 0.212 ± 0.02 |
| CUUAACCUCUGCUUCUACUGGGUUACCUAA | 0.294 ± 0.028 |
| CUUUUCCUCUGGAUCUACUGGGUUACCAUAA | 0.422 ± 0.047 |
| CUUAACCUCUGGAUCAACUGGGUUUCCUAA | 0.0606 ± 0.015 |
| CUUUUCCUCUGGAUCUACUAGGUUACCUAA | 0.224 ± 0.037 |
| CUUAACGUCUGGAUCUUCUGGGUUACCUAA | 0.169 ± 0.018 |
| CUUAACCUCAUGGAUCUACUGGGUUACCUAA | 0.371 ± 0.039 |
| CUAUUCCUCUGCAUCUACUCGGUUACCUAA | 0.0856 ± 0.012 |
| CUUAAGGAGUGGUUGUACUGGGUUACCUAA | 0.00613 ± 0.0041 |
| CUAUUCCUCUCGAUCUACUGGGUUUCCUAA | 0.546 ± 0.059 |
| CUUAACCUCUGGAACUACUGGGUUACCAAA | 0.133 ± 0.015 |
| CUUAUCCUCUGGUUCUAGUGGGUUACCUAA | 0.193 ± 0.023 |
| CUAUUCCUCUGGAUCUACAGGGUUAGCUAA | 0.157 ± 0.035 |

From the supplement of paper PMC10338343
